In PubChem BioAssay (NCI) one finds GI50 and TGI data, which are given here for six molecules.

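Protocol summary: plate cells (96-well), add compound at 5 concentrations, incubate 48 h, interpolate endpoints linearly. GI50: concentration for 50% inhibition of growth. TGI: total growth inhibition.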

The assay deals with NCI-H322M lung. Put plainly: NCI-60 cell line screen, 48 h.
Regarding `Oc1cccc2ccc(-c3nnc(SCc4ccc(O)c5ncccc45)n3-c3ccccc3)nc12`, the GI50 was 0.552 µM and the TGI is more than 31.9 µM.

For `COc1cc(OC)c(/C=C/S(=O)(=O)Cc2ccc(OC)c(NC(=O)CCC(=O)NO)c2)c(OC)c1`, the GI50 was 0.0649 µM and the TGI is more than 100 µM.

`CCCc1cc2cc(-n3nc(CC)c4c3CC(C)(C)CC4=O)cc(NC3CCC(O)CC3)c2c(=O)[nH]1` (configuration not stated): the GI50 was 2.48 µM and the TGI was more than 100 µM.

With `O=C(NCCCNc1cc(-c2cn(-c3ccccc3)nc2-c2cccc(O)c2)ccn1)Nc1ccc(F)cc1`, the GI50 is 3.7 µM and the TGI was 12.4 µM.

On to `Cc1cccc(/C=C/C(=O)Nc2ncc(Cc3cccc(C)c3)s2)c1`, for which the GI50 was 1.17 µM and the TGI is more than 100 µM.

For `CCC(=C(c1ccc(OCCN(C)C)cc1)c1ccc(OCCN(C)C)cc1)c1ccc(Cl)cc1`, the GI50 was 3.17 µM and the TGI is 6.38 µM.
